In the antibiotic and cytotoxicity screens of Wong et al. (2023):
The other results are listed elsewhere or left out.

system: HSkMC (human skeletal muscle cells); assay: cytotoxicity call (relative viability < 0.9); details: 10 µM

SMILES	cytotoxicity call
O=C(CN1CCOCC1)NCC[C@@H]1CC[C@H](NC(=O)Cc2ccccn2)[C@H](CO)O1	inactive
O=C(C1=C[C@H](c2coc3ccccc3c2=O)C[C@H](OCCCCO)O1)N1CCOCCOCCOCCOCC1	inactive
COC(=O)C1=CO[C@@H](O[C@@H]2O[C@H](CO)[C@@H](O)[C@H](O)[C@H]2O)/C(=C\CO)[C@@H]1CC(=O)OCCc1ccc(O)cc1	inactive
C[C@@H]1CN([C@@H](C)CO)C(=O)c2cccc(NC(=O)Nc3ccccc3)c2O[C@@H]1CN(C)Cc1ccc(-c2ccccc2)cc1	active
C[C@@H]1CN([C@H](C)CO)C(=O)c2cc(NC(=O)C3CC3)ccc2O[C@H]1CN(C)Cc1ccc(-c2ccccc2)cc1	inactive
COc1cccc(NC(=O)N(C)C[C@H]2OCc3ccccc3-c3c(n(C)c4ccccc34)C(=O)N([C@H](C)CO)C[C@@H]2C)c1	inactive
CCOC(=O)c1nnn(CC(N)=O)c1C	inactive
COc1ccc(C#Cc2ccc([C@H]3[C@H]4CN(S(=O)(=O)c5cn(C)cn5)CCCCN4[C@H]3CO)cc2)cc1	inactive
Nc1ccc(C(=O)N2CCOCC2)cc1	inactive
Cc1cc(C)c(S(N)(=O)=O)cc1S(N)(=O)=O	inactive
CC(C)NC(=O)N(C)C[C@H]1Oc2ccc(NC(=O)CCC(F)(F)F)cc2CC(=O)N([C@@H](C)CO)C[C@@H]1C	inactive
NCCn1cccn1	inactive
C[C@@H]1CN([C@@H](C)CO)C(=O)c2cc(N(C)C)ccc2O[C@@H](C)CCCCO[C@H]1CN(C)Cc1ccc(C(=O)Nc2ccccc2N)cc1	inactive
C[C@@H]1CCCCO[C@H](CN(C)C(=O)CCCN(C)C)[C@@H](C)CN([C@@H](C)CO)C(=O)c2cc(NC(=O)Nc3ccc(F)cc3)ccc2O1	inactive
C[C@H](CO)N1C[C@H](C)[C@@H](CN(C)CC2CCCCC2)OCCCC[C@H](C)Oc2ccc(NC(=O)Nc3ccccc3)cc2C1=O	inactive

system: HepG2; assay: cytotoxicity call (relative viability < 0.9); details: 10 µM

SMILES	cytotoxicity call
C[C@@H]1CN([C@H](C)CO)C(=O)c2cc(NS(C)(=O)=O)ccc2O[C@@H]1CN(C)C(=O)NC1CCCCC1	inactive
C[C@H](CO)N1C[C@H](C)[C@@H](CN(C)C(=O)Nc2ccccc2)OCCCC[C@H](C)Oc2ccc(NC(=O)c3ccccc3)cc2C1=O	inactive
C=C[C@](C)(O)CC/C=C(\C)C(=O)O[C@@H]1[C@@H](O[C@@](C)(C=C)CC/C=C(\C)C(=O)O[C@H]2C[C@@]3(C(=O)O[C@H]4OC[C@@H](O[C@H]5O[C@@H](CO)[C@@H](O)[C@@H](O[C@H]6O[C@@H](CO)[C@@H](O[C@H]7O[C@@H](CO)[C@@H](O)[C@@H](O)[C@@H]7O)[C@@H](O)[C@@H]6O)[C@@H]5O)[C@@H](O)[C@@H]4O)[C@@H](O)C[C@@]4(C)C(=CC[C@H]5[C@@]6(C)CC[C@@H](O[C@H]7O[C@@H](CO)[C@@H](O[C@H]8O[C@@H](CO)[C@@H](O)[C@@H](O[C@H]9OC[C@@H](O)[C@@H](O)[C@@H]9O)[C@@H]8O)[C@@H](O)[C@@H]7O)C(C)(C)[C@@H]6CC[C@@]54C)[C@@H]3CC2(C)C)OC[C@@H](O)[C@H]1O	active
COCC(=O)Nc1ccc2c(c1)C(=O)N(C)C[C@@H](OC)[C@@H](C)CN(Cc1ccccc1F)[C@H](C)CO2	inactive
CCN1CCN(C(=O)NC(C(=O)NC2C(=O)N3C(C(=O)O)=C(CSc4nnnn4C)CSC23)c2ccc(O)cc2)C(=O)C1=O (configuration not stated)	inactive
O=C(C[C@@H]1CC[C@H]2NC[C@@H](O)COC[C@@H]2O1)NCCN1CCCCC1	inactive
COCCOC(=O)N1C(=O)[C@@]2(c3cc(C#CCCO)ccc31)[C@H](C(=O)N1CCc3cc(OC)c(OC)cc3C1)[C@H]1C(=O)O[C@H](c3ccccc3)[C@H](c3ccccc3)N1[C@@H]2c1ccccc1OCCO	active
CN1CCN(C(=O)C[C@@H]2CC[C@H](NC(=O)Cc3ccccn3)[C@@H](CO)O2)CC1	inactive
CN1C[C@]2(CCN(C(=O)c3cn(CCN4CCNCC4)nn3)C2)OC1=O	inactive
O=C1c2ccccc2[C@@]2(Cc3ccccc3N(Cc3ccccc3)C2=O)[C@H](c2ccc(CO)cc2)N1Cc1ccccc1C(F)(F)F	inactive
COCC#Cc1cnc2c(c1)C(=O)N([C@H](C)CO)C[C@@H](C)[C@@H](CN(C)C(=O)Nc1cc(F)ccc1F)O2	inactive
COc1cc2c(cc1OC)CC(=O)N(CCCN(C)CC1Cc3cc(OC)c(OC)cc31)CC2.Cl (configuration not stated)	inactive
